Assay results published in PubChem BioAssay AID504466 (National Center for Advancing Translational Sciences (NCATS), 2011).
The campaign covered roughly 330,000 compounds. About 4,200 (1.3%) were called active. The shares of active, inactive and inconclusive entries below differ from those in the screen. Calls follow the shape of the dose curve; as a rule, active = well fitted activation curve with a large enough effect; inconclusive = small, poorly fitted or top-dose-only effect; inactive = no such curve, though single readings can be large or run the other way. A potency beside an inconclusive call is a rough fit, not a confirmed value.

assay: qHTS screen for small molecules that induce genotoxicity in human embryonic kidney (HEK293T) cells expressing luciferase-tagged ELG1; settings: HEK293T ELG1-luciferase reporter, luminescence, 16 h; series mostly up to 46 µM; activity change, positive = activation: at the top concentration; also: nearly all actives have a fitted effect of over 60% in size; as to activity change, positive = activation: % of control where 0% means no effect
Summary of the method: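 Screening used a luciferase reporter fused to human ELG1 in HEK293T cells. Luminescence was read on a CCD plate imager after 16 hr exposure and 30 min ONE-Glo incubation.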
Potency is read from the fitted curve at half-maximal effect; tags tell the direction and shape of the fitted curve.

SMILES | Potency | activity change, positive = activation
Cc1ccc(NC(=O)CN2CCCCCC2)c(Br)c1 | inconclusive: 11.6 µM [activator, partial curve] | –
CN1CCN(c2ccc(NC(=S)NC(=O)c3cccc4ccccc34)cc2)CC1 | inconclusive: 25.9 µM [activator, single point] | –
CCN(CC)S(=O)(=O)c1ccc2oc(C(=O)NCCCN3CCOCC3)c(C)c2c1 | – | inactive: -0.418%
O=C(c1cccs1)N1CCc2ccccc21 | inconclusive: 14.1 µM [activator, partial curve, poor fit] | –
CCOC(=O)c1cc(-c2ccccc2)n(CCC(=O)N2CCN(c3ccccn3)CC2)c1C | – | inactive: -6.28%
O=C(Nc1nnc(C2CCCO2)s1)c1ccc(Br)cc1 (stereo not drawn) | inconclusive: 10.3 µM [activator, partial curve] | –
O=C(Nc1ccc([N+](=O)[O-])cc1Cl)c1cc(Cl)ccc1O | inconclusive: 0.058 µM [activator, full curve] | –
COc1cccc(Nc2nc(N)nc(-c3oc4ccccc4c3C)n2)c1 | – | inactive: 3.25%
CCCCOc1ccc(C(=O)Nc2ccc3c(c2)OCO3)cc1 | inconclusive: 16.4 µM [activator, single point] | –
CCOc1ccc(Br)cc1C(=O)N/N=C/c1cccc(C)n1 | – | inactive: 1.04%
CCn1c(SC)nnc1C1CCN(CC(=O)Nc2ccccc2N2CCOCC2)CC1 | inconclusive: 23.1 µM [activator, partial curve, poor fit] | –
COc1ccc(C(=O)Nc2nc3ccccc3c(=O)[nH]2)cc1 | inconclusive: 1.46 µM [activator, full curve] | –
O=C(COc1ccc(Cl)cc1)NCc1nnc(SCC(=O)N2CCCCCC2)o1 | – | inactive: 19.6%
Cn1c(CCNC(=O)c2ccccc2)nc2cc(NC(=O)c3ccco3)ccc21 | inconclusive: 11.2 µM [activator, partial curve] | –
CC(=O)c1ccc(-n2cc(-c3ccc(C(C)(C)C)cc3)[n+]3c2SCCC3)cc1 | – | inactive: -17%
CCOc1ccccc1C(=O)N1CCN(c2ccc(C(F)(F)F)cn2)CC1 | – | inactive: -8.57%
O=C1c2ccccc2NC(c2ccc3c(c2)OCCO3)N1c1ccc2c(c1)OCCO2 (stereo not drawn) | active: 2.06 µM | –
COc1ccc(/C=C/C(=O)c2c(O)cc(C)oc2=O)c(OC)c1 | active: 16.4 µM | –
O=C(CSC1=NCCS1)N1CCc2ccccc21 | active: 8.2 µM | –
CN(CC(=O)Nc1cccc(F)c1)CC(=O)Nc1ccccc1[N+](=O)[O-] | inconclusive: 3.66 µM [activator, single point] | –
O=C(Nc1ccc(Br)cn1)c1ccc(Cl)s1 | active: 3.26 µM | –
CCN(c1ccccc1)S(=O)(=O)c1cccc(C(=O)N(C)CCOc2ccccc2)c1 | – | inactive: -7.72%
COc1ccccc1CCNCc1ccc(OC)c(OCc2ccccc2)c1 | inconclusive: 4.61 µM [activator, partial curve] | –
CCc1nnc(NC(=O)CSc2nc(-c3ccc(OC)cc3)ns2)s1 | inconclusive: 13 µM [activator, partial curve, poor fit] | –

SMILES | Potency | activity change, positive = activation
COc1cccc2cc(C(=O)NCc3ccc(C)cc3)c(=N)oc12 | inconclusive: 25.9 µM [activator, partial curve, poor fit] | –
COc1ccc(NS(=O)(=O)c2ccc(Cl)c(C(=O)O)c2)cc1S(=O)(=O)N1CCCCC1 | – | inactive: -3.42%
O=C(NCCc1ccccc1)c1cccs1 | active: 2.91 µM | –
CCc1cc(C(=O)Nc2ncccc2O)sc1C | active: 0.326 µM | –
CCOC(=O)CSc1nc2c(c(=O)[nH]1)C(C)(CC)Cc1ccccc1-2 (stereo not drawn) | inconclusive: 32.6 µM [activator, partial curve, poor fit] | –
Cc1ccc(N2C(=O)c3ccccc3NC2(C(=O)O)c2ccccc2)cc1Cl (stereo not drawn) | inconclusive: 16.4 µM [activator, partial curve, poor fit] | –
CCN(c1ccc(NC(=O)CN2C(=O)NC3(CCOc4ccccc43)C2=O)cc1)C(C)C (stereo not drawn) | – | inactive: 0.818%
O=C(Nc1nc(-c2ccc(Cl)cc2)cs1)C1CCCO1 (stereo not drawn) | inconclusive: 13 µM [activator, partial curve, poor fit] | –
O=C(O)c1ccc(CSc2nnc(COc3ccc(Cl)cc3Cl)o2)cc1 | inconclusive: 29.1 µM [activator, single point] | –
CC(C)Oc1cccc(C(=O)N/N=C/c2ccoc2)c1 | inconclusive: 29.1 µM [activator, single point] | –
CCn1c(SCC(=O)N2CC(C)OC(C)C2)nc2c([nH]c3ccccc32)c1=O (stereo not drawn) | – | inactive: -2.29%
COc1ccc(CN(C(=O)Cn2nnc(-c3ccc(C)o3)n2)C(C(=O)NCC2CCCO2)c2ccco2)cc1 (stereo not drawn) | inconclusive: 0.291 µM [activator, partial curve, poor fit] | –
CC(=O)Nc1cccc(C(=O)OCc2ccccc2)c1 | inconclusive: 20.6 µM [activator, single point] | –
Cn1c(SCC(=O)NC2CCCCC2)nnc1-c1cc2cc(Cl)ccc2o1 | inconclusive: 11.6 µM [activator, partial curve, poor fit] | –
Cc1cc(C(=O)CN2C(=O)c3ccccc3S2(=O)=O)c(C)n1-c1ccccc1 | – | inactive: -26.7%
Cn1c(SCC(=O)NC2CC2)nnc1-c1ccc(Cl)cc1 | – | inactive: -1.48%
O=C(Nc1ccccc1)c1ccc(CSc2ccccn2)cc1 | inconclusive: 2.59 µM [activator, partial curve] | –
COc1ccc(C(=O)N/N=C(/C)c2cccc(NC(=O)c3ccncc3)c2)cc1OC | – | inactive: -3.87%
Cc1ccc(NC(=O)c2ccc(OC(=O)C(C)Oc3ccc(Cl)cc3C)cc2)cc1 (stereo not drawn) | inconclusive: 11.6 µM [activator, partial curve] | –
Brc1ccc(-c2cn3c(n2)SCC3)cc1 | active: 10.3 µM | –
CCC(Oc1ccccc1)C(=O)Nc1cc(Cl)ccc1-n1cncn1 (stereo not drawn) | – | inactive: 1.33%
O=C(NCCc1ccccc1)C(=O)Nc1nccs1 | – | inactive: 16%
Cc1sc2nc3n(c(=O)c2c1C)Cc1ccccc1-3 | inconclusive: 4.61 µM [activator, full curve] | –
COc1ccc(NC(=O)/C(C#N)=C/c2ccc(-c3ccc(Cl)c(C(=O)O)c3)o2)cc1 | inconclusive: 18.3 µM [activator, single point] | –
